The other results are listed elsewhere or left out.
Each sequence was assayed on PF3D7_0420300 AP2 domain 1 (GST-tagged) (assay: gcPBM binding intensity (ln(normalized median fluorescence intensity)); higher = stronger DNA binding).
Method in brief: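 DNA-binding domains from P. falciparum, fused to GST and produced in E. coli, were put on an Agilent 4 × 180k double-stranded probe array for 1 h in 1× PBS holding 1% milk, 0.2 mg/ml BSA, 0.5% salmon testes DNA and 0.03% Triton X-100. Probes were primer-extended, 36 bp long and drawn from intergenic genomic regions, with negative controls included. After Alexa488 anti-GST antibody detection and a 488 nm scan, binding intensity was set as the highest Masliner-normalised natural-log median intensity across replicate spots of either probe orientation.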

Row | Sequence | gcPBM binding intensity (ln)
1 | AAAAATTACAAAAATGCATGTACTATTCATATTTTT [TGCATGCA_site918] | 9.17
2 | ATGAGTAACATATTTGTGCACATATGGTTATTTTTA [GTGCAC_site9541] | 9.27
3 | TTTTTTTCTCTTTTTATTACAAAAAGGGTTTATATA [TGCATGCA_negctrl_site75] | 8.86
4 | ATTATATTAATATATATATATATATATATAATAATA [CACACA_negctrl_site437] | 8.86
5 | ATGAAAAAATTTAAATGTACATTACATATATTTATT [XGTACX_site2524] | 9.14
6 | TAATATTATATTATATGTACATAACAAATTATATTT [XGTACX_site4296] | 9.18
7 | TAATTGAGCAAATGAGTGCACAGCATAAAGTATAGT [GTGCAC_site9497] | 9.54
8 | AAATTTAAAATAAGTAGTACATAATATAAATAAATA [XGTACX_site3592] | 9.38
9 | GTACTTGTATTATGCACACATATAATTAAACATATA [CACACA_site3312] | 9.41
10 | TATAAAAGAAACTATACACACATATTTTAAATATTT [CACACA_site2753] | 9.47
11 | TAAGCCTTTCTATTATGTACTTATTAAAACATGTAG [XGTACX_site8022] | 9.13
12 | CTTATATTAAAACACACACACGCACAAAACAGAAAT [CACACA_site1462] | 10.2
13 | AAATTTATTTCTGTGTGTCCACAAAAAAAAATCTTT [XGTACX_site691] | 9.03
14 | TTTTTTTTTTTCAATAGTACTTTCCATTTACATATA [XGTACX_site3889] | 9.24
15 | TTTTATAAATACACACGTACGTGTGCATAACGTTTT [XGTACX_site3199] | 9.41
16 | AAAAAAAATAATATTGTACACACATAAATTCTTTGT [CACACA_site8654] | 9.48
17 | TACTTTTTAAAAATGTTTTATATAATAAAAAGATAT [CACACA_negctrl_site678] | 8.91
18 | ATATCATAAGTAGAAACACACAATTAGATTTTTTCC [CACACA_site2353] | 9.42
19 | ATTATAAACCAGAATGCATGTAGATGAATCTTTTCT [TGCATGCA_site284] | 9.2
20 | TAAAAATATAAAACATGTACATATATGCATATATTT [XGTACX_site8093] | 9.31
21 | TTTTGAAAGTTTTTGTGTCCACATATATTTATATAT [XGTACX_site6563] | 9.18
22 | GTTTAAAGTTGAACAAGTACACATTTATATAAGGCA [XGTACX_site351] | 9.29

Row | Sequence | gcPBM binding intensity (ln)
23 | TTTATTTATTACTAAAGTACTAAATCATATAATTAT [XGTACX_site3654] | 8.93
24 | TTTAATAAAAAAATTAAAAATAAAGAAAAAAAAAAA [CACACA_negctrl_site1464] | 9.05
25 | AAATATATATAAAACTCACACATTATCTTATAACCA [CACACA_site5268] | 9.45
26 | TATGTGTATACAATATGTACATATGTTAACTTGTAT [XGTACX_site872] | 9.31
27 | AAAAAATAATATTGTACACACATAAATTCTTTGTCA [CACACA_site5187] | 9.38
28 | ATGTATGGAAATTTTACACACAAGAGTAGTTTAAAA [CACACA_site1710] | 9.4
29 | TTAAATAAATATAAGTGTACATACACACTTTACAAT [XGTACX_site6348] | 9.22
30 | GCATATGTTCAGCGTTGTACATAAAAAAAAACATAT [XGTACX_site5974] | 9.07
31 | GCGTAATCTATTTGCACACTTATTTGTTCTTAAAAA [CACACA_site672] | 9.39
32 | TGAGATAACAAAAGTTGTACTTTTTTTTTTTTTTTT [XGTACX_site3004] | 8.89
33 | ATATATATATGTATGTATATATATATATATGTTTGA [GTGCAC_negctrl_site561] | 9.24
34 | GGGGACGCGGGTGGGGGTACTCACACTATGCAAAAT [XGTACX_site7745] | 9.97
35 | GTATCAATAAAAAACAGTACATATATAATATATTTA [XGTACX_site1083] | 9.27
36 | TTCATATAGAATTGTACACACAAAAACGACATTGTG [CACACA_site7061] | 9.53
37 | AAAAAAAAGGAAATAACACACATGTATATATCTATA [CACACA_site6856] | 9.53
38 | ATATATGTTCCTTTTACACACATAATCTTTTTTTTA [CACACA_site2661] | 9.84
39 | TTTTTAAAAATATACACACACAGATATTATATATAT [CACACA_site786] | 9.75
40 | AAAATATAATATAATGCACACATAAAAAAAAAAAAA [CACACA_site7989] | 9.53
41 | ATATTGTGTTATAAATGTACACAATTTCCTTTCATA [XGTACX_site7481] | 9.33
42 | AAAATATAATATAATGCACACATAAAAAAAAAATCA [CACACA_site7922] | 9.56
43 | TATCTGTAAATGGACACACACATATATATATATATA [CACACA_site5926] | 9.57
44 | TTTTAAAAAAAATAAAAAATAAACAATAATAAATAA [CACACA_negctrl_site721] | 9.16

Row | Sequence | gcPBM binding intensity (ln)
45 | TCTTTATTATTCGCCACACACATATATATATATATA [CACACA_site3077] | 9.77
46 | TATATATATAAAAATACACACATGAATGAATATATA [CACACA_site419] | 9.61
47 | TATACTCATAAATACACACACATATATATATATATA [CACACA_site5822] | 9.64
48 | GGGGGCTTTTATAAAAGTACAAAATGAATAAAAATT [XGTACX_site2393] | 9.25
49 | TATACATACCCACCCACACACAAAAAAAAAAAAAAA [CACACA_site4632] | 9.68
50 | TTAATTATGTTTTGGTGTACAATAAATTGAATAGAT [XGTACX_site3306] | 9.16
51 | CTACTTAATATTTGTACACACATATTTAACCTACTA [CACACA_site5725] | 9.62
52 | ATGTTATAATTTAGTGTGCACATATTAAGAGGAACA | 9.57
53 | ATATATATTTATATATGTACATATTTTTGTGTATTT [XGTACX_site1183] | 9.55
54 | AATAATAATAGAAACACACACACATTTTTAATAATA [CACACA_site1217] | 10.1
55 | ATATATATATATATATGTACATAATAATTTTATAAA [XGTACX_site5105] | 9.08
56 | CTTTTTTTTTTTTTTTGTCCGTATGAGGGACCTATA [XGTACX_site8839] | 8.94
57 | TCCATTGTCACCTTTTGTACTTAAATTTTTTCCTCC [XGTACX_site1573] | 9.24
58 | TGAGATAAATGTGGTAGTACATTTTTTTTATATATA [XGTACX_site1918] | 9.17
59 | ATATCATCTTCTCTATCATTTTTTTTTTTTTTTTTT [CACACA_negctrl_site1220] | 9.37
60 | ATAAAAAAATCAGACACACACACGTAAACACATACA [CACACA_site5529] | 10.1
61 | CAAAAATTACCCTTGTGTACACATATATTATATGTA [XGTACX_site1124] | 9.47
62 | TACAAAAGCTATAACATTCACCACATTATAAAAATA [CACACA_negctrl_site1112] | 9.26
63 | TTTAAAAAAAAAAATACACACATAAAAGTTTTCAAA [CACACA_site6471] | 9.37
64 | TTTTCATTAAGATACTTATAATAGTTTATTAGTAAA [CACACA_negctrl_site586] | 8.77
65 | TTACAAATATTATAATGTACCCATTTTTTTTGCCTT [XGTACX_site6612] | 9.16
66 | TAATATGAAGATGGCAGTACTCTAGTCAATTTTTAC [XGTACX_site5375] | 9.18

Row | Sequence | gcPBM binding intensity (ln)
67 | AATTCAAAGAAAAACTGTACGTGTAGCAAACATCCT [XGTACX_site599] | 9.43
68 | AAAATATATAAATATACATGCATAATTAATAGTATA [TGCATGCA_site804] | 9.33
69 | AAAATAATTTTATAGTTGCACTATATCGTATACAAT | 9.14
70 | ATATATTTTATACATACACACATATATATATTTTTT [CACACA_site3940] | 9.66
71 | TGATTAAATCAAGAAAGTACAAAATGAAATATATAA [XGTACX_site4319] | 9.18
72 | TAAAGTGTAAAATTCACACACATATAAATAAATATA [CACACA_site6765] | 9.49
73 | AAAACAAACATTACACGTACAAAACAAGTTATAGAC [XGTACX_site6320] | 9.92
74 | TTTTTGATATTAAAGGGTACATTATTTACAAAAAAA [XGTACX_site5284] | 8.74
75 | CTGCCTTCCATACCCACACACTTCCCATATATTTTA [CACACA_site5491] | 10.1
76 | ATGCTTTTTTATAAAAGTACATAAAGTTTTTACACT [XGTACX_site7307] | 8.97
77 | ATTCTTTTATTTAGTAGTACATTTGTATTTTATTCA [XGTACX_site5790] | 9.46
78 | GATCCTGGTTCTTGTGGTACTTGTTCATTTGTTATA [XGTACX_site7164] | 9.95
79 | TAAACATTTTTAATTTTGTAAAATTTTAAATAAAAA [XGTACX_negctrl_site612] | 8.56
80 | TTTTTTATTGTGAAACTGATATTATATTTTTTATAA [GTGCAC_negctrl_site559] | 9.02
81 | ACAAACAAAGAAAGAACACACATACACAAGATACCT [CACACA_site7353] | 9.97
82 | TGAATATTTTATGATTGTACATATTATAATAAACAT [XGTACX_site6113] | 9.22
83 | TATTATATATATAGGTGTACGCATTTGTCCTTTATA [XGTACX_site1385] | 9.35
84 | AAACTTATGTTTACATGTACAGAACTTTATATTATG [XGTACX_site4843] | 9.18
85 | TCGAACATTAACATAACACACATATAGATTTATATA [CACACA_site7380] | 9.44
86 | TTATTCTTTAACTAAAATTATATATATATATTATAC [CACACA_negctrl_site1597] | 9.15
87 | TTGTATGCTTCCCGACTACATTATGCCATAAATGTA [TGCATGCA_negctrl_site136] | 9.13
88 | ATTGTAATAAATTGTAGTACATGTAAGGTTTTATTT [XGTACX_site1005] | 9.46
